# In the supplement of paper PMC11417369:
# The other results are listed elsewhere or left out.
# System: PF3D7_0420300 AP2 domain 1 (GST-tagged)
# Experiment: gcPBM binding intensity (ln(normalized median fluorescence intensity)); higher = stronger DNA binding
# Summary of the method: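 The binding buffer was 1× PBS containing 1% milk, 0.2 mg/ml BSA, 0.5% salmon testes DNA and 0.03% Triton X-100. In it, GST-tagged P. falciparum DNA-binding domains expressed in E. coli were applied for 1 h to an Agilent 4 × 180k array of primer-extended double-stranded 36-bp intergenic genomic probes plus negative controls. Binding intensity, read with Alexa488 anti-GST antibody and a 488 nm scan, is the highest Masliner-normalised natural-log median intensity across replicate spots of either probe orientation.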
row,Sequence,gcPBM binding intensity (ln)
1,TATATATATAACAACACACACAGATCATAAAACTGC [CACACA_site2161],10
2,AAAAAAAAAAAAAACACACACAAATTTAATATATAT [CACACA_site1695],9.91
3,TATATTTATTTTAACACACACATATATATATTATAT [CACACA_site4729],9.65
4,TCCCAAGGAGTAGGCACACATAAAATATTATACATA [CACACA_site717],9.19
5,AAAAAAAAAAAAAAAACACACACAAATTTAATATAT [CACACA_site8492],9.74
6,TACACCAAAAAAAAACGTACAAAATCCCACCCAGAC [XGTACX_site4622],10.6
7,AAAATTAAAGTAAGGACACACATATATAATACATAT [CACACA_site823],9.8
8,TACAACATATTCAAATGTACAAATATAGGAATGAAA [XGTACX_site2730],9.4
9,AACATAAAATGGATATGTACATAAAAATATATACTC [XGTACX_site7775],9.49
10,AGCGTATTATACTGACGTACATTTTATGTAACTCCA [XGTACX_site2715],9.1
11,CGTTAGAGGGCTTTATCACACATGAAAAAAAAAAAA [CACACA_site5155],8.84
12,TTATGTATTCATAACACATGCAAATAGGATCATATA [TGCATGCA_site731],9.26
13,CACACGCACAGACACACACACACATATAAATATGTA [CACACA_site6300],10.1
14,ATATGATTTCACAAGACACACACATACAAATTTATA [CACACA_site9296],9.74
15,TAAAGTTTTTTTTTAACACACACATAATAAAATAAA [CACACA_site8042],9.51
16,TAAAAAAATAAAAAAAAAAAATTATAAAATTATATA [GTGCAC_negctrl_site302],8.97
17,AAATATATTATAAATTGTACGTTTATATATATTATT [XGTACX_site5110],9.35
18,GACACATATAAATATTAACACACATAATGAATTATA [CACACA_site8881],9.51
19,ACATTATGCCATAAATGTACACATACATATACACAG [XGTACX_site1330],9.41
20,TAACTAAGGAATAATACACACAGAAATATATATTTA [CACACA_site344],9.75
21,GATGATGTTACTTAAGTGCATATAAATTATATTTTA [GTGCAC_site9940],9.14
22,TAGTATCAATCTTATACATGCATAAAATAATTATAA [TGCATGCA_site1052],9.05

row,Sequence,gcPBM binding intensity (ln)
1,GTGTTCTTGTTATACACACACATATTTATATTTATA [CACACA_site6615],9.82
2,TTTATTTATATAATTACACACATATATACGCAAATG [CACACA_site2794],9.48
3,TCATTAATTAAATCTTGTACATATTCATATATATAT [XGTACX_site2241],9.33
4,TTTTATTCATTAATTTGTACTTATCCTTTTGCTTAA [XGTACX_site1243],9.23
5,TAAGCCAAGGGATAAATAAAATAACAAAATGAAATC [GTGCAC_negctrl_site601],9.44
6,AAAGTATAGATGTATACACACACCAAACGTTAAAAA [CACACA_site3081],9.67
7,AAACAAAAAAGAAGCACACATATATATATATATATG [CACACA_site2456],9.59
8,TATACGCATATATACACACACATATATATATATATA [CACACA_site3416],9.66
9,ATCTGAAAAATTAATAGTACAATTAATAATTAAACC [XGTACX_site8523],9.31
10,TGTTAATTTCATTTTCTACACACCTATCCTTTTTTT [CACACA_site8157],9.69
11,ACAAATAAATATTCGCGTACTTATATAATATTACGA [XGTACX_site6428],9.13
12,AACAAACAAATAGTTTATTTTGATTTTTTTAAAAAT [CACACA_negctrl_site693],8.87
13,AAAAAAAATATCCGACGTACTATTTTCGTAGAAATA [XGTACX_site6292],9.05
14,TCATATGTGAAACACACACACACACCCAAAAAAACA [CACACA_site3247],10.1
15,GAACAAAAATACTTATGTACACATTAGCAAGGAAAA [XGTACX_site5622],9.41
16,TGTTTCTTATTTTTTTCACACACTAATCATTTCAAA [CACACA_site8695],9.69
17,ATTATGTTATTATTTTGTACACATAAATAATACGTT [XGTACX_site816],9.31
18,AGAAAAGAAATTAAATGTACACAACTATAACCAAAT [XGTACX_site8084],9.72
19,AAAAAAAAAAAATAAAGTACTAAATAATACATTATA [XGTACX_site6203],9.2
20,TGTACAACAATTTTTGCACACACCAAAACATAAAAT [CACACA_site1598],9.69
21,TTTTATAAAATATAATATAATAATATATGTATAATA [CACACA_negctrl_site1788],8.96
22,ATATATCTACAAATATGTACACACACACATATATAT [XGTACX_site1075],10.1
